This note sets out measurements from CN117603358A (INST MICROBIOLOGY CAS; 3SBIO GROUP; SHANXI ADVANCED …, dated 2024).

Common to all, as to assay: cell-based or functional assay
Test [1] addresses S蛋白, SARS-CoV-2 XBB (SARS-CoV-2 XBB).
Test [2] deals with S蛋白, SARS-CoV-2 BF.7 (SARS-CoV-2 BF.7).
Test [3] deals with T1, S蛋白, SARS-CoV-2 XBB.1.5 (SARS-CoV-2 XBB.1.5).
Test [4] has as its target S蛋白, SARS-CoV-2 BA.4/5 (SARS-CoV-2 BA.4/5).
For test [5], the target named is S蛋白, SARS-CoV-2 BA.1 (SARS-CoV-2 BA.1).
For test [6], the target named is T2, S蛋白, SARS-CoV-2 BA.2.75 (SARS-CoV-2 BA.2.75).
Test [7] addresses S蛋白, SARS-CoV-2 BQ.1.1 (SARS-CoV-2 BQ.1.1).
In test [8] the target is S蛋白, SARS-CoV-2 Delta (SARS-CoV-2 Delta).
In test [9] the target is S蛋白, SARS-CoV-2 BQ.1 (SARS-CoV-2 BQ.1).
Test [10] has as its target S蛋白, SARS-CoV-2 EG.5突变株 (SARS-CoV-2 EG.5).
In test [11] the target is S蛋白, SARS-CoV-2 XBB (SARS-CoV-2 XBB). The source holds these as a separate data set.
For test [12], the target named is S蛋白, SARS-CoV-2 XBB.1.16 (SARS-CoV-2 XBB.1.16).
Test [13] concerns the target S蛋白, SARS-CoV-2 BF.7 (SARS-CoV-2 BF.7). The source holds these as a separate data set.
Test [14] deals with S蛋白, SARS-CoV-2 BA.1.1 (SARS-CoV-2 BA.1.1).
Test [15] concerns the target T1, S蛋白, SARS-CoV-2 XBB.1.5. The source holds these as a separate data set.
Test [16] addresses S蛋白, SARS-CoV-2 BA.4/5 (SARS-CoV-2 BA.4/5). The source holds these as a separate data set.
Test [17] has as its target S蛋白, SARS-CoV-2 BA.2 (SARS-CoV-2 BA.2).
Test [18] has as its target S蛋白, SARS-CoV-2 BA.3 (SARS-CoV-2 BA.3).
The target in test [19] is S蛋白, SARS-CoV-2 BA.1 (SARS-CoV-2 BA.1). The source holds these as a separate data set.
Test [20] concerns the target T2, S蛋白, SARS-CoV-2 BA.2.75. The source holds these as a separate data set.
Test [21] deals with S蛋白, SARS-CoV-2 BQ.1.1 (SARS-CoV-2 BQ.1.1). This is another data set of the same source.
Test [22] has as its target S蛋白, SARS-CoV-2 BQ.1 (SARS-CoV-2 BQ.1). The source holds these as a separate data set.

B1: 双特异性抗体蛋白DIA-19 (bispecific antibody)
chain: QITLKESGPTLVKPTQTLTLTCTFSGFSLSTSGVGVAWIRQPPGKALEWLALIYWDNDKRSSPSLNNRLTITKDTSKNQVVLTMTNMDPEDTATYYCAHFFSHYDSSNYYYGSWFDPWGQGTLVTVSSGGGGSGGGGS[letters of about 100 residues omitted]FTFGPGTKVDIKGGGGSGGGGSGGGGSGGGGSGGGGSEVQLVESGGGVVQPGGSLRLSCAVSGFTFDDYAMHWVRQAPGKGLDWVSLISGDGSYTYYADSVKGRFTISRDSSKNSLYLQMNSLRTEDTALYYCAKAQTPTLWWLQDAFDIWGQGTMVTVSSGGGGSGGGGSEIVLTQSPGTLSLSPGERATLSCRASQSFDSRYLGWYQQKSGQAPRLLIYGASSRATGIPDRFSGSGSGTDFTLTISRLEPEDFAVYYCQQFGDSPFTFGQGTKLEIKGGGGS[letters of human IgG1 Fc with changes omitted]
With B1, the “假病毒中和活性 IC50” value in test [1] was found to be 1.94 ng/mL; in test [2], 1.19 ng/mL; in test [3], 1.66 ng/mL; in [4], 0.859 ng/mL; in test [5], 0.423 ng/mL; in test [6], 1.76 ng/mL. The “假病毒中和活性 IC50” value turned out to be 46.6 ng/mL in [7], 1.34 ng/mL in test [8] and 6.82 ng/mL in test [9]. Besides, the “假病毒中和效果 IC50” value in test [10] is 1.15 ng/mL; in test [11], 0.652 ng/mL; in test [12], 0.72 ng/mL; in test [13], 0.451 ng/mL; in test [14], 0.182 ng/mL; in test [15], 0.899 ng/mL. The “假病毒中和效果 IC50” value worked out at 0.332 ng/mL in test [16]; 0.377 ng/mL in test [17]; 0.311 ng/mL in [18]; 0.272 ng/mL in test [19]; 1.01 ng/mL in test [20]; 7.51 ng/mL in [21]. Besides, the “假病毒中和效果 IC50” value in test [22] was 3.14 ng/mL.
